Results as given in PubChem BioAssay AID1468 (National Center for Advancing Translational Sciences (NCATS), 2008).
“And” between values parts separate entries of the source, which are not always exact repeats. Equal values may be shown once. The whole screen tested about 280,000 compounds, of which about 1,100 (0.39%) were called active. Inconclusive results, whose numbers are uncertain, are shown with a selection of clear calls. Calls follow the shape of the dose curve; as a rule, active = well fitted inhibition curve with a large enough effect; inconclusive = small, poorly fitted or top-dose-only effect, or effect the other way; inactive = flat fitted curve, though single readings scatter. Where the call is inconclusive, the potency comes from a doubtful curve fit.

Molecular target: Microtubule-associated protein tau (Homo sapiens) (UniProt P10636)
Assay: qHTS for Inhibitors of Tau Fibril Formation, Fluorescence Polarization; also: nearly all actives have a fitted effect of over 55% in size
Conditions: K18 P301L tau heparin fibrillization, Alexa594 FP, 6 h; series mostly up to 57.7 µM
Outline: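 Recombinant K18 P301L […], labeled with Alexa 594 at 0.24 uM over 15 uM unlabeled; heparin inducer 20 uM final; 37 C, 6 hr; FP endpoint.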
Potency is read from the fitted curve at half-maximal effect; tags tell the direction and shape of the fitted curve.

Chain of UniProt P10636 (P10636 whole entry, looked up): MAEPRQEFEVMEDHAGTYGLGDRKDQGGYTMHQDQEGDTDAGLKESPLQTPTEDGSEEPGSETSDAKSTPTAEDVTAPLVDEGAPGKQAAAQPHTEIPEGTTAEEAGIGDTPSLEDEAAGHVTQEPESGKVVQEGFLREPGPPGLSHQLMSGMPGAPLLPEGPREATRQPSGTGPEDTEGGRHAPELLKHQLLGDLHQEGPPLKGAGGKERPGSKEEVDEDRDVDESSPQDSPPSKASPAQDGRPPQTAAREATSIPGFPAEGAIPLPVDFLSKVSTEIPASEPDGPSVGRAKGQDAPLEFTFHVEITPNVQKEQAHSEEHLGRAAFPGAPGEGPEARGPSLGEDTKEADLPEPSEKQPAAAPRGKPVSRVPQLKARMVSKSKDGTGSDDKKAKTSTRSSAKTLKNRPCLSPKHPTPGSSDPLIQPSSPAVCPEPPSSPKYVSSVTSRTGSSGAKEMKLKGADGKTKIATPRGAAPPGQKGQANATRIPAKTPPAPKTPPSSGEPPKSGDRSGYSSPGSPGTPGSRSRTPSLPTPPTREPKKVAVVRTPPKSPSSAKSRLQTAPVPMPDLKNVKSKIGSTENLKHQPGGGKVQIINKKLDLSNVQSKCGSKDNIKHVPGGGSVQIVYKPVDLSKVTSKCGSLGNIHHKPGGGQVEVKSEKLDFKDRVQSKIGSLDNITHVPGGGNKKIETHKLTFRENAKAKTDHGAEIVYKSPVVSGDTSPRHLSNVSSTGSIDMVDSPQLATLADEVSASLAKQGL

Q: With `COc1ccc(Nc2ncc(C(=O)N3CCN(c4ccc(F)cc4)CC3)c3ccccc23)cc1` as the molecule, how does the Potency read?
A: inconclusive: 22.4 µM [activator, partial curve] and inconclusive: 8.91 µM [activator, partial curve, poor fit]

Q: How did the Potency turn out when `CCCc1ccc(OC(=O)c2ccc(O)cc2Cl)cc1` was run?
A: active: 28.2 µM

Q: How did the Potency turn out when `CSc1ncnc2c1ncn2C1OC(CO)C(O)C1O` (configuration not stated) was run?
A: inactive

Q: `Cc1cccc(OCCn2c(SCC(=O)O)nc3ccccc32)c1` was tested. Which Potency did it give?
A: inactive

Q: How did the Potency turn out when `CCCCN1C(C(=O)c2ccccc2)=C(OC(C)=O)c2ccccc2S1(=O)=O` was run?
A: inconclusive: 28.2 µM [inhibitor, partial curve]

Q: How did the Potency turn out when `CCOc1cccc(C(=O)Nc2cc(-c3ccc(C)cc3)no2)c1` was run?
A: inconclusive: 0.251 µM [inhibitor, single point]

Q: For `Cc1cc(NS(=O)(=O)c2ccccc2)cc(Cl)c1O`, which Potency is on record?
A: inactive

Q: `COC(=O)c1cccc(-n2[nH]nnc2=S)c1` was tested. Which Potency did it give?
A: inconclusive: 28.2 µM [inhibitor, single point]

Q: `Cc1ccc2[nH]c3c(N4CCN(Cc5ccccc5)CC4)ncnc3c2c1` was tested. Which Potency did it give?
A: inconclusive: 39.8 µM [activator, single point]

Q: For `Cc1c(NC(=O)Nc2ccccc2C(F)(F)F)sc2nc3n(c(=O)c12)CCC(C)CC3` (configuration not stated), which Potency is on record?
A: inconclusive: 2.82 µM [activator, full curve]

Q: How did the Potency turn out when `CC(C)C1Cc2c(C#N)c(N)sc(=S)c2CO1` (configuration not stated) was run?
A: inactive

Q: `COC(=O)c1ccc(C(NC(=O)OCc2ccccc2)/C(=C/[C@@H](C)C(=O)NCc2nc3ccccc3s2)c2cccnc2)cc1` (some centres not stated) was tested. Which Potency did it give?
A: inconclusive: 39.8 µM [activator, single point]

Q: With `Fc1ccc2c(c1)-c1nc(-c3ccccc3)cc(-c3ccccc3)c1CO2` as the molecule, how does the Potency read?
A: inconclusive: 20 µM [inhibitor, partial curve]

Q: For `O=C(CSc1nc2ccccc2c(=O)n1-c1ccccc1)N1CCc2ccccc2C1`, which Potency is on record?
A: inconclusive: 39.8 µM [inhibitor, single point]

Q: How did the Potency turn out when `Fc1ccc(/C=N/NC2=Nc3cccc4cccc2c34)cc1` was run?
A: inactive

Q: With `Cc1nc2ccc(S(=O)(=O)N(C)CC(=O)Nc3cccc(C(F)(F)F)c3)cc2s1` as the molecule, how does the Potency read?
A: inconclusive: 28.2 µM [inhibitor, single point]

Q: For `COc1ccc2[nH]c(=O)c(CN(Cc3nnnn3Cc3ccco3)C3CCCCC3)cc2c1`, which Potency is on record?
A: inconclusive: 25.1 µM [inhibitor, partial curve]

Q: With `COc1cc(OC)c2cc(C(=O)N/N=C/c3cccc(OC)c3O)[nH]c2c1` as the molecule, how does the Potency read?
A: inconclusive: 3.98 µM [activator, partial curve]

Q: `Cc1ccc(C(=O)/C=C/c2cn(CC(O)CN3CCOCC3)c3ccccc23)cc1` (configuration not stated) was tested. Which Potency did it give?
A: inactive

Q: How did the Potency turn out when `O=C1NC(=Nc2ccccc2)SC1Cc1cccc(Cl)c1Cl` (configuration not stated) was run?
A: inconclusive: 39.8 µM [inhibitor, single point]

Q: Which Potency does the source give for `COc1ccc(/C=N/Nc2nc3ccccc3[nH]2)cc1OC` here?
A: inconclusive: 17.8 µM [activator, partial curve]

Q: For `CC(C)(C)c1ccc(C(=O)Nc2ccc(N3CCOCC3)cc2)cc1`, which Potency is on record?
A: inactive

Q: With `Cc1cc(Cl)ccc1NC(=S)NCCC(c1ccccc1)c1ccccc1` as the molecule, how does the Potency read?
A: inconclusive: 20 µM [inhibitor, partial curve]

Q: For `O=C(COC(=O)C1=COCCO1)NCCCc1ccccc1`, which Potency is on record?
A: inconclusive: 8.91 µM [activator, single point]

Q: `COc1cc2c(cc1OC)C1Cc3ccc(OC)c(OC)c3CN1CC2` (configuration not stated) was tested. Which Potency did it give?
A: inactive

Q: How did the Potency turn out when `CCN(CC)S(=O)(=O)c1ccc(Cl)c(NC(=O)COC(=O)c2cc(-c3ccccc3Cl)nc3ccccc23)c1` was run?
A: inconclusive: 15.8 µM [inhibitor, partial curve]

Q: `Cc1nnc(NC(=O)CSc2ccc(-c3ccco3)nn2)s1` was tested. Which Potency did it give?
A: inconclusive: 25.1 µM [inhibitor, single point]

Q: `Cc1cccc(NC(=O)CSc2ncnc3c2oc2ccccc23)c1` was tested. Which Potency did it give?
A: inactive

Q: For `CCCOC(=O)c1ccc(NC(=O)/C=C/c2cccs2)cc1`, which Potency is on record?
A: inconclusive: 12.6 µM [inhibitor, partial curve]

Q: How did the Potency turn out when `COc1cc(NC(=O)c2cn(C3CCCC3)c(=O)c3c2c2ccccc2n3C)cc(OC)c1OC` was run?
A: inactive

Q: For `CC(=O)Nc1ccc(S(=O)(=O)Oc2cccc(/C=C3\SC(N)=NC3=O)c2)cc1`, which Potency is on record?
A: inconclusive: 31.6 µM [inhibitor, single point]

Q: How did the Potency turn out when `CCNc1nc(NCC)nc(SCCOC(=O)Nc2ccc(Cl)cc2Cl)n1` was run?
A: inconclusive: 20 µM [inhibitor, single point]

Q: How did the Potency turn out when `Cn1cc(S(=O)(=O)N2CCOCC2)cc1C(=O)Nc1ccc(Cl)c(C(F)(F)F)c1` was run?
A: inactive

Q: Which Potency does the source give for `Cc1ccc(N(CC(=O)Nc2cccc(Cl)c2)S(=O)(=O)c2cccs2)cc1` here?
A: inconclusive: 15.8 µM [inhibitor, partial curve]

Q: `Cc1cccc(N=Cc2cc3c(cc2[N+](=O)[O-])OCO3)c1` was tested. Which Potency did it give?
A: inconclusive: 28.2 µM [inhibitor, single point]

Q: How did the Potency turn out when `Cc1c(-n2c(O)c(C3=c4ccccc4=NC3=O)sc2=S)c(=O)n(-c2ccccc2)n1C` was run?
A: inactive

Q: For `O=C(O)c1cccc(N2C(=O)/C(=C/c3ccc(SCc4ccc(Cl)cc4)o3)SC2=S)c1`, which Potency is on record?
A: inconclusive: 39.8 µM [inhibitor, single point]

Q: With `Oc1ccc(/C=C/c2cc(O)cc(O)c2)cc1` as the molecule, how does the Potency read?
A: inconclusive: 7.08 µM [activator, partial curve, poor fit] and inconclusive: 22.4 µM [activator, single point]

Q: `Cc1ccc2onc(CC(=O)Nc3ccc(C(C)C)cc3)c2c1` was tested. Which Potency did it give?
A: inactive

Q: With `CC(CC(=O)O)CC(=O)Nc1ccc(Br)cc1` (configuration not stated) as the molecule, how does the Potency read?
A: inactive

Q: For `Cc1ccc2c(c1)-c1c(cnc3cc(-c4ccc(Cl)cc4)nn13)CO2`, which Potency is on record?
A: inconclusive: 25.1 µM [inhibitor, single point]

Q: `O=C(CNC(=O)c1ccccc1O)N/N=C/c1cc(Br)ccc1OC(=O)/C=C/c1ccco1` was tested. Which Potency did it give?
A: inconclusive: 12.6 µM [inhibitor, partial curve, poor fit]

Q: `CCOC(=O)C1CCCN(c2oc(-c3ccc(OC)cc3)nc2C#N)C1` (configuration not stated) was tested. Which Potency did it give?
A: inconclusive: 11.2 µM [activator, partial curve]

Q: `CC(C)OC(=O)c1ccc(NC(=O)CSc2nc(-c3cccs3)cc(C(F)(F)F)n2)cc1` was tested. Which Potency did it give?
A: inconclusive: 28.2 µM [inhibitor, partial curve]

Q: With `COc1cccc(CN2CCN(C(=O)c3cc(-c4cccnc4)nc4ccc(C)cc34)CC2)c1` as the molecule, how does the Potency read?
A: inactive

Q: Which Potency does the source give for `CCOC(=O)C1=C(CSc2nc3c(cc2C#N)CN(C)CC3)OC(N)=C(C#N)C1c1ccncc1` (configuration not stated) here?
A: inconclusive: 20 µM [inhibitor, single point]

Q: How did the Potency turn out when `O=C(NCc1ccco1)C(Cc1ccccc1)N1C(=O)C2C3C=CC(C3)C2C1=O` (configuration not stated) was run?
A: inconclusive: 39.8 µM [inhibitor, single point]

Q: How did the Potency turn out when `Cc1ccc(/C=C/C(=O)Nc2nccs2)o1` was run?
A: inconclusive: 39.8 µM [inhibitor, single point]

Q: Which Potency does the source give for `N#Cc1cc2ccccc2nc1SCC(=O)Nc1ccc(S(=O)(=O)N2CCCC2)cc1` here?
A: inconclusive: 35.5 µM [inhibitor, single point]

Q: With `COc1cc(N=Nc2cccc(S(N)(=O)=O)c2)c2ccccc2c1N` as the molecule, how does the Potency read?
A: inconclusive: 14.1 µM [inhibitor, single point]

Q: `COc1ccc2nc(-n3c(O)c(C4=c5ccccc5=NC4=O)[nH]c3=S)sc2c1` was tested. Which Potency did it give?
A: inconclusive: 35.5 µM [inhibitor, partial curve]

Q: Which Potency does the source give for `CCc1ccc(C(=O)c2cn(CC(=O)Nc3ccc(F)cc3)c3ccc(F)cc3c2=O)cc1` here?
A: inconclusive: 28.2 µM [inhibitor, partial curve, poor fit]

Q: `COc1cccc(-c2nc(CS(=O)(=O)CC(=O)Nc3ccc(C)c(Cl)c3)c(C)o2)c1` was tested. Which Potency did it give?
A: inconclusive: 15.8 µM [inhibitor, partial curve]

Q: With `COc1ccccc1/C=C1/SC(=O)N(CCC(=O)Nc2ccc(S(=O)(=O)Nc3nccs3)cc2)C1=O` as the molecule, how does the Potency read?
A: inconclusive: 39.8 µM [inhibitor, single point]

Q: How did the Potency turn out when `CCN(CC)CCC(C)OC(=O)c1ccc(O)cc1O` (configuration not stated) was run?
A: inactive

Q: How did the Potency turn out when `COc1ccc(OC)c(-n2c(-c3cc(-c4ccco4)[nH]n3)n[nH]c2=S)c1` was run?
A: inactive

Q: Which Potency does the source give for `N#Cc1cccc(NC(=O)COC(=O)c2ccccc2Sc2ccccc2C#N)c1` here?
A: active: 15.8 µM

Q: Which Potency does the source give for `Cc1cc(-c2csc(N)n2)c(C)n1C` here?
A: inconclusive: 39.8 µM [inhibitor, single point]

Q: With `CCOc1cc(/C=C2\C(=O)N(c3nc(-c4ccc(Br)cc4)cs3)N=C2c2ccccc2)ccc1O` as the molecule, how does the Potency read?
A: inconclusive: 44.7 µM [inhibitor, single point]

Q: With `C=CCn1c(-c2cccc3ccccc23)n[nH]c1=S` as the molecule, how does the Potency read?
A: inactive

Q: With `Cc1cc(C(=O)CN2C(=O)c3cccc(N)c3C2=O)c(C)n1Cc1cccs1` as the molecule, how does the Potency read?
A: inconclusive: 39.8 µM [inhibitor, single point]

Q: With `CC(C)CC1CC(=O)OC1(C)C(=O)CSc1nc2ccccc2s1` (configuration not stated) as the molecule, how does the Potency read?
A: inactive

Q: For `CCc1ccc(NC(=O)Cn2c(=O)n(CCC(=O)NCCc3ccc(OC)c(OC)c3)c(=O)c3ccccc32)cc1`, which Potency is on record?
A: inconclusive: 20 µM [inhibitor, partial curve, poor fit]

Q: For `O=C(Nc1ccc(F)cc1F)Nc1sccc1-c1nc2ccccc2s1`, which Potency is on record?
A: inconclusive: 39.8 µM [inhibitor, single point]

Q: For `Cc1nc(NC(=O)c2cccnc2)ccc1Br`, which Potency is on record?
A: inactive

Q: `CC(C)c1ccc(CNCCSc2nnnn2-c2ccccc2)cc1` was tested. Which Potency did it give?
A: inactive

Q: How did the Potency turn out when `O=c1/c(=C/c2ccco2)sc2nc(-c3ccccc3Br)nn12` was run?
A: inconclusive: 20 µM [inhibitor, single point]
